Laboratory results taken from the supplement of paper PMC9446081.
About 220 (0.56%) of roughly 39,000 compounds showed activity. This is one part of the list.

Tested on: Escherichia coli K-12 BW25113
Test: relative growth (OD600 normalised to plate interquartile mean) (fraction); higher = less growth inhibition, active = 0.2 or less
Conditions: 50 µM; LB; incubation time: overnight (16-24 h)
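Further: static incubation at 37 °C against the wild-type strain, values averaged over two biological replicates.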

SMILES	relative growth
Cc1cc(C(=O)Nc2cccc3c2O[C@H](CN(C)S(=O)(=O)c2ccc(F)cc2)[C@H](C)CN([C@H](C)CO)C3=O)n(C)n1	inactive: 0.956
NCc1cn(-c2ccccc2)nc1C12CC3CC(CC(C3)C1)C2	inactive: 0.352
CSc1cc(-c2ccc(Cl)cc2)nc(-c2cccs2)c1	inactive: 0.966
Cc1noc(C)c1NC(=O)N(C)C[C@@H]1Oc2ccc(NC(=O)Nc3cccc4ccccc34)cc2CC(=O)N([C@H](C)CO)C[C@H]1C	inactive: 0.997
COc1cc2c(cc1-c1coc3c4c(ccc3c1=O)OC(C)(C)CC4)OCO2	inactive: 0.977
CCCOc1ccc(C(=O)OCCN(CC)CC)cc1N.Cl	inactive: 0.84
O=C(C[C@H]1CC[C@@H]2[C@H](COC[C@@H](O)CN2C(=O)Nc2ccc(C(F)(F)F)cc2)O1)NCCc1ccncc1	inactive: 0.964
C[C@H]1CN([C@@H](C)CO)S(=O)(=O)c2ccc(C#CC3(O)CCCC3)cc2O[C@@H]1CN(C)C(=O)Nc1ccccc1	inactive: 0.998
C[C@@H]1CCCCO[C@H](CN(C)CC2CCCCC2)[C@@H](C)CN([C@H](C)CO)C(=O)c2cc(NC(=O)Cc3ccccc3)ccc2O1	inactive: 1.01
Cc1ccc(S(=O)(=O)Nc2cccc3c2O[C@@H](CN(C)S(=O)(=O)c2ccccc2)[C@@H](C)CN([C@@H](C)CO)C3=O)cc1	inactive: 1.02
C[C@@H]1CN([C@H](C)CO)C(=O)c2cc(NC(=O)Nc3ccc4c(c3)OCO4)ccc2O[C@@H]1CN(C)Cc1ccc(-c2ccccc2)cc1	inactive: 0.966
C[C@@H]1CCCCO[C@@H](CN(C)C(=O)Cc2ccccc2)[C@@H](C)CN([C@H](C)CO)C(=O)c2cc(NC(=O)Nc3ccc(C(F)(F)F)cc3)ccc2O1	inactive: 1.04
CO[C@@H]1CN(C)C(=O)c2ccc(NC(=O)CC(F)(F)F)cc2OC[C@H](C)N(S(=O)(=O)c2cn(C)cn2)C[C@H]1C	inactive: 0.985
COc1ccc2c3c([nH]c2c1)[C@@H](CO)N(C[C@]13CCN(CC1)C(=O)Nc1c(noc1C)C)C(=O)Nc1ccc(cc1)F	inactive: 1.01
C[C@@H]1CCCCO[C@H](CN(C)S(=O)(=O)c2cccs2)[C@@H](C)CN([C@@H](C)CO)C(=O)c2cc(NC(=O)Cc3ccccc3)ccc2O1	inactive: 1.03
C[C@@H]1CN([C@@H](C)CO)C(=O)c2cc(NC(=O)Nc3cccc4ccccc34)ccc2O[C@H]1CN(C)C(=O)NC1CCCCC1	inactive: 1.02
CC(C)(N)c1nc(-c2ccc(OC(F)(F)F)cc2)c[nH]1	inactive: 0.959
CO[C@H]1CN(C)C(=O)c2cc(NC(=O)c3ccc(F)cc3)ccc2OC[C@@H](C)N(C(=O)CN(C)C)C[C@@H]1C	inactive: 0.982
C[C@@H]1CCCCO[C@@H](CN(C)Cc2ccc(C(=O)O)cc2)[C@H](C)CN([C@H](C)CO)C(=O)c2cc(NS(=O)(=O)c3ccccc3)ccc2O1	inactive: 0.98
C[C@H]1CN([C@@H](C)CO)S(=O)(=O)c2ccc(-c3ccc(F)cc3)cc2O[C@H]1CN(C)S(C)(=O)=O	inactive: 1.01

SMILES	relative growth
C[C@H](CO)N1C[C@H](C)[C@@H](CN(C)S(=O)(=O)c2cccs2)Oc2ccc(NC(=O)Nc3cccc4ccccc34)cc2CC1=O	inactive: 1
CN1C(=O)c2cc(NC(=O)C3CCOCC3)ccc2OC[C@H]2O[C@@H](CC(=O)NCc3ccccc3F)CC[C@H]21	inactive: 0.964
C[C@@H]1CCCCO[C@@H](CN(C)Cc2ccc(Cl)c(Cl)c2)[C@H](C)CN([C@H](C)CO)C(=O)c2cc(NC(=O)Cc3ccccc3)ccc2O1	inactive: 0.922
C[C@@H]1CCCCO[C@H](CN(C)Cc2ccc3c(c2)OCO3)[C@@H](C)CN([C@@H](C)CO)C(=O)c2cc(NS(=O)(=O)c3ccc(F)cc3)ccc2O1	inactive: 0.991
C[C@H](CO)N1C[C@H](C)[C@@H](CN(C)C(=O)CCCN(C)C)OCc2cnnn2CCCC1=O	inactive: 0.967
C[C@@H]1CN([C@H](C)CO)C(=O)Cc2cc(NC(=O)Nc3ccc4c(c3)OCO4)ccc2O[C@@H]1CN(C)S(C)(=O)=O	inactive: 1
C[C@@H]1CCCCO[C@@H](CN(C)Cc2ccccc2)[C@@H](C)CN([C@H](C)CO)C(=O)c2cc(NS(=O)(=O)c3ccc(F)cc3)ccc2O1	inactive: 0.987
O=C(C[C@@H]1C[C@H]2c3cc(NC(=O)Nc4ccc(C(F)(F)F)cc4)ccc3O[C@H]2[C@@H](CO)O1)NCc1cc(F)ccc1F	inactive: 0.997
O=C(C[C@@H]1CC[C@H]2[C@@H](COC[C@@H](O)CN2S(=O)(=O)c2ccc(Cl)cc2)O1)NCc1ccncn1	inactive: 1.01
C[C@@H]1CCCCO[C@H](CN(C)C(=O)c2ccccc2)[C@@H](C)CN([C@H](C)CO)C(=O)c2cc(NC(=O)NC3CCCCC3)ccc2O1	inactive: 0.991
CCc1c(C)c2cc3c(-c4ccccc4)coc3cc2oc1=O	inactive: 0.959
Cc1noc(C)c1S(=O)(=O)N(C)C[C@@H]1Oc2ccc(NC(=O)c3ccncc3)cc2CC(=O)N([C@@H](C)CO)C[C@@H]1C	inactive: 0.995
COc1ccc2c(c1)OC1COc3cc(OC)c(OC)cc3C1C2=O (centres undefined)	inactive: 0.99
CO[C@H]1CN(C)C(=O)c2ccc(NS(=O)(=O)c3cn(C)cn3)cc2OC[C@@H](C)N(CCC(F)(F)F)C[C@H]1C	inactive: 0.998
C[C@@H]1CN([C@H](C)CO)C(=O)c2c(c3ccccc3n2C)-c2ccccc2CO[C@H]1CN(C)Cc1ccc(Cl)c(Cl)c1	inactive: 1.01
C[C@H]1CN([C@@H](C)CO)C(=O)c2cc(C#CCN(C)C)cnc2O[C@@H]1CN(C)C(=O)CCN1CCCCC1	inactive: 0.989
NCc1ccc(-n2cncn2)cc1	inactive: 1.02
C[C@H]1CN([C@@H](C)CO)C(=O)Cc2cc(NC(=O)NC3CCCCC3)ccc2O[C@H]1CN(C)C(=O)Nc1ccc(C(F)(F)F)cc1	inactive: 0.99
C[C@H](CO)N1C[C@H](C)[C@@H](CN(C)C(=O)Nc2ccccc2)Oc2ccc(NC(=O)Cn3cnnn3)cc2CC1=O	inactive: 0.989
